# From PubChem BioAssay AID1476 (National Center for Advancing Translational Sciences (NCATS), 2009)
# Hit rate of the full screen: of about 200,000 compounds, about 4,500 (2.2%) were called active. Inconclusive means that the source gave no clear call. Such entries were picked first, then a sample of the others. Calls follow the shape of the dose curve; as a rule, active = well fitted inhibition curve with a large enough effect; inconclusive = small, poorly fitted or top-dose-only effect, or effect the other way; inactive = flat fitted curve, though single readings scatter. Potencies of inconclusive entries are doubtful fits and often do not repeat.
# Molecular target: Cruzipain (Trypanosoma cruzi) (UniProt P25779)
# Chain of UniProt P25779 (P25779 whole entry, looked up): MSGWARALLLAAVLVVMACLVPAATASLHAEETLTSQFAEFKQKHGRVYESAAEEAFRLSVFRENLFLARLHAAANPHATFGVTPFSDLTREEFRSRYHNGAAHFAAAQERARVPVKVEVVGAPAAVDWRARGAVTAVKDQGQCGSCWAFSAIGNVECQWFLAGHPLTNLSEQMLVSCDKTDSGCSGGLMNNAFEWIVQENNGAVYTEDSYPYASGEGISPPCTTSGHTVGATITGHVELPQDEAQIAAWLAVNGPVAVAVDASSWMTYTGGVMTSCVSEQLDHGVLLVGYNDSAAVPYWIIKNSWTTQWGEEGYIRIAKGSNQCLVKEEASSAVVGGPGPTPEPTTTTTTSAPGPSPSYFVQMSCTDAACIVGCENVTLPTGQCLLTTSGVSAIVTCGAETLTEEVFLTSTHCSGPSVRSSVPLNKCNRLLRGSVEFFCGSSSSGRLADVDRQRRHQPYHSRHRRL
# Assay: qHTS Assay for Promiscuous and Specific Inhibitors of Cruzain (without detergent); also: nearly all actives have a fitted effect of over 40% in size;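 as to max response, negative = inhibition: plate controls were enzyme without inhibitor for no effect and buffer without enzyme for full effect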
# Conditions: purified cruzain, Z-FR-AMC fluorescence, no detergent
# Summary of the method: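 Detergent-free condition (0.00005% Triton X-100) in acetate buffer pH 5.5 with DTT. 1.5 nM enzyme and compound were pre-mixed 15 min, then 2 uM Z-FR-AMC substrate added; reaction progress from fluorescence change between first and third reads (60 s).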
# Potency is read from the fitted curve at half-maximal effect; tags tell the direction and shape of the fitted curve.
Structure (SMILES),Potency,"max response, negative = inhibition"
Cc1nn(-c2ccccc2)c(C)c1/C=N/NC(=O)CSc1nnc(SCc2cccc3ccccc23)s1,active: 3.98 µM,
Cc1nc(N2CCOCC2)c2cc(-c3ccccc3)sc2n1,"inconclusive: 39.8 µM [activator, single point]",
O=C(NCCO)c1ccc(Cl)c(Cl)c1,,inactive: -2.83%
CN(C)c1nc(OCCNC(=O)COc2ccc(Cl)cc2Cl)nc(N2CCCCC2)n1,"inconclusive: 39.8 µM [activator, single point]",
COc1cc(/C=N/NC(=S)NCc2ccccc2)ccc1OCC#N,"inconclusive: 25.1 µM [inhibitor, single point]",
CC(C)(C)c1ccc(C(=O)Nc2nnc3n2CCS3)cc1,,inactive: -3.85%
Cc1ccc(S(=O)(=O)N2CCN(c3ccc([N+](=O)[O-])c(NCCN4CCOCC4)c3)CC2)cc1,"inconclusive: 39.8 µM [activator, single point]",
COC(=O)c1sccc1S(=O)(=O)N(CC(=O)Nc1cc(F)ccc1F)c1ccc(C)c(C)c1,"inconclusive: 31.6 µM [inhibitor, single point]",
O=C(c1ccccc1-c1nc(-c2ccc(Cl)cc2)no1)N1CCCC1,"inconclusive: 31.6 µM [activator, single point]",
O=C(Oc1cccc(NC(=O)c2ccco2)c1)c1cccc(S(=O)(=O)N2CCCCC2)c1,"inconclusive: 25.1 µM [inhibitor, single point]",
O=c1nc(Nc2ccccc2)sc2ccc([N+](=O)[O-])cc12,active: 10 µM,
O=C(CCNS(=O)(=O)c1ccc2c(c1)CCCC(=O)N2)NCc1ccc(Cl)cc1,,inactive: -1.76%
CN(C)c1ncc2nc(-c3ccccc3)c(=O)n(C[C@H]3CCCO3)c2n1,,inactive: 7.3%
CCSc1nc2sc3c(c2c(=O)n1-c1ccc(C)c(Cl)c1)CCN(C(C)=O)C3,"inconclusive: 10 µM [activator, partial curve]",
CO[C@H]1/C=C/O[C@@]2(C)Oc3c(C)c(O)c4c(O)c(c(/C=N/N5CCN(C)CC5)c(O)c4c3C2=O)NC(=O)/C(C)=C\C=C\[C@H](C)[C@H](O)[C@@H](C)[C@@H](O)[C@@H](C)[C@H](OC(C)=O)[C@@H]1C,"inconclusive: 12.6 µM [activator, full curve]",
Cc1ccc(NC(=O)Cc2nnc(SCC(=O)c3ccc(Br)cc3)n2C)cc1Cl,active: 12.6 µM,
O=C(Nc1ccccc1)c1ccc(NCC2CCCO2)c(S(=O)(=O)N2CCOCC2)c1 (configuration not stated),"inconclusive: 31.6 µM [activator, single point]",
CCOC(=O)CSC1=N/C(=C\c2cc(OC)c(OC)c(OC)c2)C(=O)N1C,"inconclusive: 25.1 µM [activator, single point]",
Cc1ccc(C)c(NC(=O)CSc2nnc([C@@H](N)Cc3c[nH]c4ccccc34)o2)c1,active: 25.1 µM,
COc1ccc(-c2nn(C)c(=O)c3ccccc23)cc1NC(=O)Cn1nc(C)c2ccccc2c1=O,"inconclusive: 39.8 µM [activator, single point]",
COc1ccc(CCNC(=O)c2ccc3c(c2)CCN3S(=O)(=O)c2ccc(C)cc2)cc1OC,"inconclusive: 39.8 µM [activator, single point]",

Structure (SMILES),Potency,"max response, negative = inhibition"
Cc1cc(C)n(C(=O)c2ccc(Cn3nc(C)c(Br)c3C)o2)n1,"inconclusive: 39.8 µM [activator, single point]",
Cc1cccc(NC(=O)c2ccc(Cn3nc(N4CCN(c5ccccc5)CC4)ccc3=O)o2)c1C,"inconclusive: 39.8 µM [activator, single point]",
O=C(NCCc1ccc(Cl)cc1)c1cc2c(s1)-c1ccccc1OC2,"inconclusive: 39.8 µM [inhibitor, single point]",
COc1cc(OC)c2c(C)c(CC(=O)NCc3ccccc3OC)c(=O)oc2c1,"inconclusive: 3.16 µM [activator, partial curve, poor fit]",
CCOc1ccc(NC(=O)N2CCN(C(=O)c3nsc4ccccc34)CC2)cc1,,inactive: 7%
CCOC(=O)c1c(NC(=O)COC)sc(C)c1C,"inconclusive: 39.8 µM [activator, single point]",
COCCNC(=O)c1ccc2c(=O)n(Cc3ccco3)c(SCC(=O)NC3CCCCC3)nc2c1,"inconclusive: 39.8 µM [activator, single point]",
N#CC1=C(N)C(C#N)(C#N)C(c2cccnc2)C2CC(c3ccccc3)CC=C12 (configuration not stated),"inconclusive: 31.6 µM [activator, partial curve]",
CCn1c(C)nc2cc(C(=O)OC(C(F)(F)C(F)F)C(F)(F)C(F)F)ccc21,"inconclusive: 31.6 µM [activator, single point]",
Cc1ccc(N(CC(=O)N2CCN(c3cccc(C)c3C)CC2)S(=O)(=O)c2c(C)nn(C)c2C)cc1,"inconclusive: 25.1 µM [activator, single point]",
CCN(c1cc(C)cc(C)c1)S(=O)(=O)c1nnc(NC(=O)c2ccccc2C)s1,"inconclusive: 31.6 µM [inhibitor, single point]",
O=C(NC1CCCCC1)c1ccccc1NC(=O)C1CC1,"inconclusive: 1 µM [activator, single point]",
CCC1CCCCN1C(=O)Cn1c(=O)n(-c2ccc(Cl)c(Cl)c2)c(=O)c2c(C)c(C(=O)N(C)C)sc21 (configuration not stated),"inconclusive: 31.6 µM [activator, single point]",
CCc1nnc(NC(=O)CSc2nc3ccccc3s2)s1,"inconclusive: 39.8 µM [inhibitor, single point]",
COc1ccc(C(=O)NCc2ccc3c(c2)CCN3C(=O)c2ccc(Cl)cc2)c(OC)c1,,inactive: 2.21%
CCOC(=O)c1sc(NC(=O)c2ccc(CC)s2)nc1C,active: 15.8 µM,
Cc1ccc(Cl)cc1N1CCN(C(=O)c2cn(C)c(=O)c3c2c2ccccc2n3C)CC1,"inconclusive: 25.1 µM [activator, partial curve]",
COc1ccc(Cl)cc1NC(=O)CCn1nc(C)cc1C,,inactive: 3.83%
CN1C(=O)c2ccccc2Sc2ccc(NC(=O)N3CCN(c4cccc(Cl)c4)CC3)cc21,,inactive: -4.46%
CCCOc1ccc(N2C(=O)CC(N3CCC(C(=O)OCC)CC3)C2=O)cc1 (configuration not stated),"inconclusive: 31.6 µM [activator, single point]",
CCc1cccc(C)c1NC(=O)c1cc(S(=O)(=O)N2CCN(c3ccccc3)CC2)ccc1F,,inactive: 10.4%

Structure (SMILES),Potency,"max response, negative = inhibition"
CCOC(=O)c1cc2c(=O)n3ccccc3nc2n(C(C)C)c1=NC(=O)c1c(-c2c(F)cccc2Cl)noc1C,"inconclusive: 20 µM [activator, single point]",
CCCCCn1c(CN2CCN(C(=O)OCC)CC2)nc2c1c(=O)[nH]c(=O)n2C,"inconclusive: 0.316 µM [inhibitor, partial curve]",
Cc1nn(CC(O)Cn2c3c(c4ccccc42)CCN(C)C3=O)c(C)c1Br (configuration not stated),"inconclusive: 31.6 µM [activator, single point]",
COCCn1c(SCC(=O)N2CCc3ccccc3C2)nc2cc(Cl)ccc2c1=O,"inconclusive: 39.8 µM [activator, single point]",
Nc1ccc(Nc2ccccc2N)cc1,active: 25.1 µM,
O=C(NNC(=O)c1cc(-c2ccc(Cl)c(Cl)c2)nc2ccccc12)Nc1ccccc1,"inconclusive: 39.8 µM [inhibitor, single point]",
CCc1cc2cc(C(=O)Nc3ccc(F)cc3)sc2s1,"inconclusive: 39.8 µM [inhibitor, single point]",
CCN(CC)c1ccc(/C=c2/sc3nnc(-c4ccccc4C)n3c2=O)cc1,"inconclusive: 6.31 µM [inhibitor, single point]",
CCOC(=O)c1ccc(N=C2SC(C(=O)Nc3ccccc3)CC(=O)N2C)cc1 (configuration not stated),,inactive: -3.37%
COc1ccc2c(Cl)c(C(=O)NC3CCS(=O)(=O)C3)sc2c1 (configuration not stated),"inconclusive: 0.794 µM [inhibitor, single point]",
Cc1ccc(C(=O)Nc2nc3ccccc3n2CCN2CCCC2)cc1,"inconclusive: 31.6 µM [inhibitor, single point]",
COc1ccc(C)cc1NS(=O)(=O)c1ccc2oc(=O)c3ncn(C)c3c2c1,,inactive: -13.3%
CN(C)S(=O)(=O)c1ccc(C(=O)Nc2nc(-c3cc4ccccc4o3)cs2)cc1,"inconclusive: 39.8 µM [inhibitor, single point]",
O=C(Nc1cccnc1)c1cc2c(ccc3ccccc32)o1,"inconclusive: 39.8 µM [inhibitor, single point]",
O=C(N1CCCC1)N1CCN(c2ncnc3c(-c4ccc(Cl)cc4)nsc23)CC1,"inconclusive: 39.8 µM [activator, single point]",
CNC1C(O)[C@@H]2OC(O[C@@H]3C(O)C(O)C(N)C[C@H]3N)C(N)C[C@H]2O[C@H]1O[C@@H]1OC(CO)C(N)C(O)C1O (some centres not stated),,inactive: 1.63%
COc1ccccc1N(C(=O)c1cncc(Br)c1)c1nc(-c2ccc(C)cc2)cs1,active: 12.6 µM,
COc1ccc(NC(=O)Nc2cc(C(=O)NCc3ccc(C)cc3)ccc2N2CCCC2)cc1,,inactive: -5.25%
CCC1CN(C(=O)N2CCC(C(=O)NCc3cccc(F)c3)CC2)c2cc(C)ccc2O1 (configuration not stated),"inconclusive: 31.6 µM [inhibitor, single point]",
Cc1ccc(-n2nc(C)c3c(C(=O)NCCc4ccc(S(N)(=O)=O)cc4)cc(C)nc32)cc1,"inconclusive: 25.1 µM [activator, partial curve, poor fit]",
